Test in all cases: cell count relative to DMSO control; melanoma cells; higher = more viable cells
Common to all, as to settings: library dose: standard library concentration; 72 h

The subject of experiment [1] is A101D.
In experiment [2] the test system is A2058.
Experiment [3] has as its system A375.

The list shows a part of the results. Repeats are few or missing, and single values can be far off.
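Also: cells treated in 1,536-well plates, then fixed and DAPI-stained, with nuclei counted from automated high-throughput microscope images.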

Take `Cc1cn(-c2cc(NC(=O)c3ccc(C)c(Nc4nccc(-c5cccnc5)n4)c3)cc(C(F)(F)F)c2)cn1` [nilotinib] + CS(=O)(=O)CCNCc1ccc(-c2ccc3ncnc(Nc4ccc(OCc5cccc(F)c5)c(Cl)c4)c3c2)o1 [lapatinib] (first compound 1 µM, partner dose 4 µM): the cell count came to 63.9% in experiment [1], 72.8% in experiment [2] and 128% in experiment [3].

For `Cc1cn(-c2cc(NC(=O)c3ccc(C)c(Nc4nccc(-c5cccnc5)n4)c3)cc(C(F)(F)F)c2)cn1` [nilotinib] + NC(=O)Nc1cc(-c2cccc(F)c2)sc1C(=O)N[C@H]1CCCNC1 [AZD7762] (first compound 1 µM, partner dose 0.1 µM), the cell count in experiment [1] came out at 47.8%; in experiment [2], 73.8%; in experiment [3], 78.2%.

`COc1ccc(C2=N[C@@H](c3ccc(Cl)cc3)[C@@H](c3ccc(Cl)cc3)N2C(=O)N2CCNC(=O)C2)c(OC(C)C)c1` [Nutlin-3] + Nc1ncn([C@H]2C[C@H](O)[C@@H](CO)O2)c(=O)n1 [decitabine] (first compound 0.5 µM, partner dose 0.5 µM): the cell count is 77.2% in experiment [1], 77.1% in experiment [2] and 70.8% in experiment [3].

With `Cc1cc(Nc2cc(N3CCN(C)CC3)nc(/C=C/c3ccccc3)n2)n[nH]1` + O=C(O)[C@@H]1[O][Sb](=[O])([O][Sb]2(=[O])[O][C@H]([C@H](O)CO)[C@H](O)[C@H](C(=O)O)[O]2)[O][C@H]([C@H](O)CO)[C@@H]1O [stibogluconate] (first compound 0.2 µM, partner dose 10 µM), the cell count in experiment [1] turned out to be 78.9%; in experiment [2], 84.5%; in experiment [3], 112%.

As for `CC(C)C[C@H](NC(=O)[C@H](Cc1ccccc1)NC(=O)c1cnccn1)B(O)O` [Bortezomib] + COc1ccc(Cl)c(Nc2nc3ccccc3nc2NS(=O)(=O)c2cccc(NC(=O)C(C)(C)N)c2)c1 [XL147] (first compound 0.005 µM, partner dose 4 µM), the cell count came out at 12.5% in experiment [1], 13.9% in experiment [2] and 100% in experiment [3].

For the compound `CC(C)C[C@H](NC(=O)[C@H](Cc1ccccc1)NC(=O)c1cnccn1)B(O)O` [Bortezomib] + Cn1c(Nc2ccc(C(F)(F)F)cc2)nc2cc(Oc3ccnc(-c4ncc(C(F)(F)F)[nH]4)c3)ccc21 [CHIR265] (first compound 0.005 µM, partner dose 0.4 µM), the cell count amounted to 15.5% in experiment [1], 10.9% in experiment [2] and 77.9% in experiment [3].

Consider `Cc1cc(Nc2cc(N3CCN(C)CC3)nc(/C=C/c3ccccc3)n2)n[nH]1` + CC1(C)NC(=O)N(c2ccc([N+](=O)[O-])c(C(F)(F)F)c2)C1=O [nilutamide] (first compound 0.2 µM, partner dose 5 µM), for which the cell count was found to be 78.6% in experiment [1], 80.2% in experiment [2] and 75.7% in experiment [3].

As for `Cn1c(=O)n(-c2ccc(C(C)(C)C#N)cc2)c2c3cc(-c4cnc5ccccc5c4)ccc3ncc21` + CO[C@@H]1[C@H](N(C)C(=O)c2ccccc2)C[C@H]2O[C@]1(C)n1c3ccccc3c3c4c(c5c6ccccc6n2c5c31)C(=O)NC4 [Midostaurin] (first compound 0.02 µM, partner dose 0.4 µM), the cell count in experiment [1] worked out at 62.5%; in experiment [2] it was 49.1%; in experiment [3] it was 60.9%.

With `Cc1cn(-c2cc(NC(=O)c3ccc(C)c(Nc4nccc(-c5cccnc5)n4)c3)cc(C(F)(F)F)c2)cn1` [nilotinib] + CNC(=O)c1cc(Oc2ccc(NC(=O)Nc3ccc(Cl)c(C(F)(F)F)c3)cc2)ccn1 [sorafenib] (first compound 1 µM, partner dose 2 µM), the cell count came to 76.5% in experiment [1], 119% in experiment [2] and 102% in experiment [3].

For `COc1ccc(C2=N[C@@H](c3ccc(Cl)cc3)[C@@H](c3ccc(Cl)cc3)N2C(=O)N2CCNC(=O)C2)c(OC(C)C)c1` [Nutlin-3] + Nc1ccn([C@@H]2O[C@H](CO)[C@@H](O)C2(F)F)c(=O)n1 [gemcitabine] (first compound 0.5 µM, partner dose 0.002 µM), the cell count in experiment [1] came to 80.8%; in experiment [2], 64.7%; in experiment [3], 101%.

For `Cc1cc(Nc2cc(N3CCN(C)CC3)nc(/C=C/c3ccccc3)n2)n[nH]1` + CN(NC(=O)CC(=O)NN(C)C(=S)c1ccccc1)C(=S)c1ccccc1 [STA4783] (first compound 0.2 µM, partner dose 0.03 µM), the cell count in experiment [1] turned out to be 65.2%; in experiment [2] it was 10.5%; in experiment [3], 95.1%.

`COc1ccc(C2=N[C@@H](c3ccc(Cl)cc3)[C@@H](c3ccc(Cl)cc3)N2C(=O)N2CCNC(=O)C2)c(OC(C)C)c1` [Nutlin-3] + Cn1c(Nc2ccc(C(F)(F)F)cc2)nc2cc(Oc3ccnc(-c4ncc(C(F)(F)F)[nH]4)c3)ccc21 [CHIR265] (first compound 0.5 µM, partner dose 0.4 µM): the cell count in experiment [1] amounted to 51.5%; in experiment [2], 65.6%; in experiment [3] it was 83.1%.

For `Cc1cn(-c2cc(NC(=O)c3ccc(C)c(Nc4nccc(-c5cccnc5)n4)c3)cc(C(F)(F)F)c2)cn1` [nilotinib] + CCCCCCCCc1ccc(CCC(N)(CO)CO)cc1 [fingolimod] (first compound 1 µM, partner dose 10 µM), the cell count is 6.52% in experiment [1], 9.67% in experiment [2] and 37.3% in experiment [3].

Take `Cn1c(=O)n(-c2ccc(C(C)(C)C#N)cc2)c2c3cc(-c4cnc5ccccc5c4)ccc3ncc21` + CC(C)C[C@H](NC(=O)[C@H](Cc1ccccc1)NC(=O)c1cnccn1)B(O)O [Bortezomib] (first compound 0.02 µM, partner dose 0.005 µM): the cell count is 25.4% in experiment [1], 30.1% in experiment [2] and 109% in experiment [3].

Consider `COc1ccc(C2=N[C@@H](c3ccc(Cl)cc3)[C@@H](c3ccc(Cl)cc3)N2C(=O)N2CCNC(=O)C2)c(OC(C)C)c1` [Nutlin-3] + CC(C)C[C@H](NC(=O)[C@H](Cc1ccccc1)NC(=O)c1cnccn1)B(O)O [Bortezomib] (first compound 0.5 µM, partner dose 0.005 µM), for which the figures for the cell count in experiment [1], in experiment [2] and in experiment [3] were 10.5%, 11.4% and 75.7%, respectively.

`Cc1cn(-c2cc(NC(=O)c3ccc(C)c(Nc4nccc(-c5cccnc5)n4)c3)cc(C(F)(F)F)c2)cn1` [nilotinib] + O=C(CCCCCCC(=O)Nc1ccccc1)NO [vorinostat] (first compound 1 µM, partner dose 0.4 µM): the cell count in experiment [1] was found to be 107%; in experiment [2], 97.2%; in experiment [3] it was 150%.

Take `CC(C)C[C@H](NC(=O)[C@H](Cc1ccccc1)NC(=O)c1cnccn1)B(O)O` [Bortezomib] + NCC(=O)Nc1ccc(-n2nc(C(F)(F)F)cc2-c2ccc3c(ccc4ccccc43)c2)cc1 [OSU03012] (first compound 0.005 µM, partner dose 5 µM): the cell count in experiment [1] stood at 9.93%; in experiment [2] it was 9.9%; in experiment [3] it was 35.8%.

`Cc1cn(-c2cc(NC(=O)c3ccc(C)c(Nc4nccc(-c5cccnc5)n4)c3)cc(C(F)(F)F)c2)cn1` [nilotinib] + Cc1nc(Nc2ncc(C(=O)Nc3c(C)cccc3Cl)s2)cc(N2CCN(CCO)CC2)n1 [dasatanib] (first compound 1 µM, partner dose 0.02 µM): the cell count stood at 91.2% in experiment [1], 84.5% in experiment [2] and 66.5% in experiment [3].

For the compound `Cc1cn(-c2cc(NC(=O)c3ccc(C)c(Nc4nccc(-c5cccnc5)n4)c3)cc(C(F)(F)F)c2)cn1` [nilotinib] + CO[C@H]1C[C@@H]2CC[C@@H](C)[C@@](O)(O2)C(=O)C(=O)N2CCCC[C@H]2C(=O)O[C@H]([C@H](C)C[C@@H]2CC[C@@H](OCCO)[C@H](OC)C2)CC(=O)[C@H](C)/C=C(\C)[C@@H](O)[C@@H](OC)C(=O)[C@H](C)C[C@H](C)/C=C/C=C/C=C/1C [everolimus] (first compound 1 µM, partner dose 0.1 µM), the cell count in experiment [1] came out at 64.1%; in experiment [2] it was 57.5%; in experiment [3], 101%.

With `CC(C)C[C@H](NC(=O)[C@H](Cc1ccccc1)NC(=O)c1cnccn1)B(O)O` [Bortezomib] + CC1(C)NC(=O)N(c2ccc([N+](=O)[O-])c(C(F)(F)F)c2)C1=O [nilutamide] (first compound 0.005 µM, partner dose 5 µM), the cell count is 20.1% in experiment [1], 9.77% in experiment [2] and 82.3% in experiment [3].

Regarding `COc1ccc(C2=N[C@@H](c3ccc(Cl)cc3)[C@@H](c3ccc(Cl)cc3)N2C(=O)N2CCNC(=O)C2)c(OC(C)C)c1` [Nutlin-3] + CNC(=O)c1cc(Oc2ccc(NC(=O)Nc3ccc(Cl)c(C(F)(F)F)c3)cc2)ccn1 [sorafenib] (first compound 0.5 µM, partner dose 2 µM), the cell count in experiment [1] was 75.7%; in experiment [2], 128%; in experiment [3], 102%.

For `Cn1c(=O)n(-c2ccc(C(C)(C)C#N)cc2)c2c3cc(-c4cnc5ccccc5c4)ccc3ncc21` + CO[C@H]1C[C@@H]2CC[C@@H](C)[C@@](O)(O2)C(=O)C(=O)N2CCCC[C@H]2C(=O)O[C@H]([C@H](C)C[C@@H]2CC[C@@H](OCCO)[C@H](OC)C2)CC(=O)[C@H](C)/C=C(\C)[C@@H](O)[C@@H](OC)C(=O)[C@H](C)C[C@H](C)/C=C/C=C/C=C/1C [everolimus] (first compound 0.02 µM, partner dose 0.1 µM), the cell count in experiment [1] was found to be 61.2%; in experiment [2], 33.3%; in experiment [3] it was 87.9%.

For the compound `Cc1cn(-c2cc(NC(=O)c3ccc(C)c(Nc4nccc(-c5cccnc5)n4)c3)cc(C(F)(F)F)c2)cn1` [nilotinib] + COc1cc(Nc2ncc(F)c(Nc3ccc4c(n3)NC(=O)C(C)(C)O4)n2)cc(OC)c1OC [Tamatinib] (first compound 1 µM, partner dose 2 µM), the cell count is 68.9% in experiment [1], 117% in experiment [2] and 122% in experiment [3].

In the case of `CC(C)C[C@H](NC(=O)[C@H](Cc1ccccc1)NC(=O)c1cnccn1)B(O)O` [Bortezomib] + CCN(CC)CCCCNc1ncc2cc(-c3cc(OC)cc(OC)c3)c(NC(=O)NC(C)(C)C)nc2n1 [PD173074] (first compound 0.005 µM, partner dose 0.5 µM), the cell count in experiment [1] worked out at 11.1%; in experiment [2] it was 23.9%; in experiment [3], 89.8%.

As to `Cn1c(=O)n(-c2ccc(C(C)(C)C#N)cc2)c2c3cc(-c4cnc5ccccc5c4)ccc3ncc21` + COc1ccc(-c2ccc3c(N4CCOCC4)nc(N4C[C@@H](C)O[C@@H](C)C4)nc3n2)cc1CO [KU0063794] (first compound 0.02 µM, partner dose 0.1 µM), the cell count in experiment [1] stood at 70.8%; in experiment [2] it was 62.8%; in experiment [3], 99.1%.

(Values after the supplement of paper PMC4604168 (melanoma cell lines).)
